Patent US20240034784A1 (published 2024)
Where two headings read alike, the source gives them in different places.

What was measured:
human Claudin 18.2 [1] = molecular target: T1, human Claudin 18.2 (human, UniProt P56856 1-261); assay: FACS
human Claudin 18.2 [2] = molecular target: T1, human Claudin 18.2; assay: FACS; remark: listed apart in the source

| Binder | EC50 (human Claudin 18.2 [1]) | EC50 (human Claudin 18.2 [2]) |
| --- | --- | --- |
| sdab-1-hIgG1Fc (Fc fusion) QVKLEESGGGLAQAGGSLRLSCAASGRILNIAVMAWYRQTPGRQRELVAAITFGGSTDYADAVKGRFTISRDSAKNTVYLQMNDLKSEDTAVYYCNADVVTGLMRRDVYWGQGTQVTVSS[sequence of human IgG1 Fc with C220G (EU numbers) omitted] | 4.04 nM | – |
| sdab-19-hIgG1Fc (Fc fusion) QVKLEESGGGLVQAGGSLRLSCAASVSIDGILAMGWYRQAPGKQRELVATIHSRGNTNYADSVKGRFTVSRENNKNTMYLQMNSLKPEDTAVYYCYVHFWIDYWGQGTQVTVSS[sequence of human IgG1 Fc with C220G (EU numbers) omitted] | 5.85 nM | – |
| sdab-12-hIgG1Fc (Fc fusion) QVKLEESGGGLVQAGGSLTLSCAASRSIFSIDVMAWYRQAPGKQRELVARIWADGSTTYADSMKGRFAISRDTAKNTVYLQMNSLKPEDTAVYYCNAVGTIADGAFRPYNNWGQGTQVTVSS[sequence of human IgG1 Fc with C220G (EU numbers) omitted] | 11.5 nM | – |
| sdab-14-hIgG1Fc (Fc fusion) QVKLEESGGGLVQAGGSLRLSCAASGSIYRINNMAWYRQAPGKQRELVAEITSSGNTDYADSVKGRFTISRDNAKNTVYLQMNSLKPEDTAVYSCNAFIIPSVGVFTSRTYWGRGTQVTVSS[sequence of human IgG1 Fc with C220G (EU numbers) omitted] | 2.98 nM | – |
| sdab-3-hIgG1Fc (Fc fusion) QVKLEESGGGLVQAGGSLRLSCAASGSIYRINNMAWYRQAPGKQRELVAEITSSDNTYYADSVKGRFTISRDNAKNTVYLQMNSLKPEDTAVYSCNAFIIPSVGVFSSRTYWGRGTQVTVSS[sequence of human IgG1 Fc with C220G (EU numbers) omitted] | 2.69 nM | – |
| sdab-22-hIgG1Fc (Fc fusion) AVQLVESGGGLVQAGGSLRLSCVASGSWFRIQTMGWYRQTPGKQRELVADITTGGGSTYYVDSVKGRFTISRDNAKNTVYLQMINLKPEDTAAYYCQANVLEALFRPNLEVWGQGTLVTVSS[sequence of human IgG1 Fc with C220G (EU numbers) omitted] | 3.83 nM | – |
| sdab-21-hIgG1Fc (Fc fusion) QVQLVESGGGLVQAGGSLRLSCAASGRILNLNDMGWYRQTPGKQRELVASIFSSGTTNYADSAKGRFTISRDNAKKMIYLQMNSLKPEDTAVYYCNADVVTGLLQRNVYWGQGTQVTVSS[sequence of human IgG1 Fc with C220G (EU numbers) omitted] | 3.54 nM | – |
| sdab-15-hIgG1Fc (Fc fusion) QVKLEESGGGLVQAGGSLRLSCAASGSILNINSMSWYRQAPGKQRELVATITVGGSTNYADSVKGRFTISRYNANNMMYLQMNSLKPDDTGVYSCNARIVSGFLRGPDDYWGQGTQVTVSS[sequence of human IgG1 Fc with C220G (EU numbers) omitted] | 4.94 nM | – |
| sdab-24-hIgG1Fc (Fc fusion) QVKLEESGGGLVEAGGSLRLSCVASGSILNLMTMGWYRQAPGKQRELVATATPGGTTNYADSVKGRFTISRDNAKNTVYLQMNTLRPGDTAVYYCNADVVYGLARQGNYWGPGTQVTVSS[sequence of human IgG1 Fc with C220G (EU numbers) omitted] | ~3.75 nM | – |
| sdab-5-hIgG1Fc (Fc fusion) DVQLVESGGGLVQAGGSLRLSCAASVGIFMGGWYRQAPGKQRELVATISSSGRTNYADSVKGRFTISGDNSMNTVYLQMNSLKPEDTAVYYCYAHYWRDYWGRGTQVTVSS[sequence of human IgG1 Fc with C220G (EU numbers) omitted] | 5.13 nM | 5.55 nM |
| sdab-11-hIgG1Fc (Fc fusion) EVQLVESGGGLVQAGGSLRLSCVASGTILNIPLMAWFRQTPGKQRELVAGITTGGTTNYADSAKGRFTISRDNAKKTIYLQMDSLKPEDTAVYYCNADVVTGLMRRNVYWGQGTQVTVSS[sequence of human IgG1 Fc with C220G (EU numbers) omitted] | 4.12 nM | – |

The remaining lines, values ahead:

| EC50 (human Claudin 18.2 [1]) | EC50 (human Claudin 18.2 [2]) | Binder |
| --- | --- | --- |
| 3.53 nM | 3.36 nM | sdab-36-hIgG1Fc (Fc fusion) QVKLEESGGGLVQAGGSLRLSCAISGSIFSNTYMGWYRQAPGRQRELVARISGGGSVHYLDSVKGRFTISRDNAKNTLNLQMNSLTPEDTAIYYCYAHYWMDYWGQGTQVTVSS[sequence of human IgG1 Fc with C220G (EU numbers) omitted] |
| 12.7 nM | – | sdab-27-hIgG1Fc (Fc fusion) AVQLVDSGGGLVQAGGSLRLSCAVSGSFLNIVTMGWYRQAPGKQRELVATTTRGGSTNYADSVKGRFTIARDNAKNTVYLHMDALKPEDTAVYYCNAEIIPGFLQQLTLYWGQGTQVTVSA[sequence of human IgG1 Fc with C220G (EU numbers) omitted] |
| 3.79 nM | 7.55 nM | sdab-38-hIgG1Fc (Fc fusion) EVQLVESGGGLVQAGGSLRLSCVASGSIFHIPIMSWYRRAPGKQRELVAGISTGGSTNYADSVKGRFTISRDNAKNTVYLQMNSLKPDDTAVYYCNSLIKEEAWGTFGDYWGQGTQVTVSS[sequence of human IgG1 Fc with C220G (EU numbers) omitted] |
| 1.17 nM | 1.34 nM | sdab-25-hIgG1Fc (Fc fusion) QVKLEESGGGLVQAGGSLRLSCVASGSIYRINNMAWYRQAPGKQRELVAESTSGGNFIYADSVKGRFAISRDNAKNTVYLQMNSLQPEDTAVYSCNAFIIPSVGVFASRTYWGRGTQVTVSS[sequence of human IgG1 Fc with C220G (EU numbers) omitted] |
| 3.25 nM | – | sdab-28-hIgG1Fc (Fc fusion) QVKLEESGGGLVQAGGSLRLSCAASGSSNADIRFMGWYRQPAGNQRNNQREPVAMVDTTGRINYADSVKGRFTISRDNAKNTVSLQMNSLKPEDTALYYCTAVLWPRGAISAMTVWGQGTQVTVSS[sequence of human IgG1 Fc with C220G (EU numbers) omitted] |
| 7.68 nM | – | sdab-26-hIgG1Fc (Fc fusion) DVQLVESGGGPVQAGGSLRLSCVASGSIYRINEMAWYRQAPGKQRELVAVAPNSVNPNYADSVKGRFTISRGNAKNTVYLQMNSLKPEDTAVYSCNAFIIPSVGVFTSRVYWGRGTQVTVSS[sequence of human IgG1 Fc with C220G (EU numbers) omitted] |
| 2.53 nM | – | sdab-37-hIgG1Fc (Fc fusion) QVKLEESGGGLVQAGGSLRLSCAVSGNFLNIVTMGWYRQAPGKQRELVATTTRGGSTSYSDSVKGRFTISRDNAKSTVYLQMNSLKPEDTAVYYCNADIIPGFLQQLTVHWGQGTRVTVSS[sequence of human IgG1 Fc with C220G (EU numbers) omitted] |
| 5.12 nM | – | sdab-30-hIgG1Fc (Fc fusion) QVQLVESGGGLVQAGGSLRLSCAASGSIYRINNMAWYRQAPGKQRELVAEITSSGNTLYADSVKGRFTISSDGARNTVYLQMNSLKPEDTAVYSCNAFIIPSVGVFTSRAYWGRGTQVTVSS[sequence of human IgG1 Fc with C220G (EU numbers) omitted] |
